The whole screen tested about 310,000 compounds, of which about 14,000 (4.5%) showed an effect of 50% or more. Effects have a minus sign here. The list shows a part of the results.
Target: human ether-à-go-go-related gene (hERG) potassium channel (human, UniProt Q12809)
Experiment: primary screen, population patch clamp on CHO cells stably expressing hERG
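Also: peak tail current of the secondary pulse compared with the same well before compound.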

Sequence of human ether-à-go-go-related gene (hERG) potassium channel (Q12809 whole entry, looked up): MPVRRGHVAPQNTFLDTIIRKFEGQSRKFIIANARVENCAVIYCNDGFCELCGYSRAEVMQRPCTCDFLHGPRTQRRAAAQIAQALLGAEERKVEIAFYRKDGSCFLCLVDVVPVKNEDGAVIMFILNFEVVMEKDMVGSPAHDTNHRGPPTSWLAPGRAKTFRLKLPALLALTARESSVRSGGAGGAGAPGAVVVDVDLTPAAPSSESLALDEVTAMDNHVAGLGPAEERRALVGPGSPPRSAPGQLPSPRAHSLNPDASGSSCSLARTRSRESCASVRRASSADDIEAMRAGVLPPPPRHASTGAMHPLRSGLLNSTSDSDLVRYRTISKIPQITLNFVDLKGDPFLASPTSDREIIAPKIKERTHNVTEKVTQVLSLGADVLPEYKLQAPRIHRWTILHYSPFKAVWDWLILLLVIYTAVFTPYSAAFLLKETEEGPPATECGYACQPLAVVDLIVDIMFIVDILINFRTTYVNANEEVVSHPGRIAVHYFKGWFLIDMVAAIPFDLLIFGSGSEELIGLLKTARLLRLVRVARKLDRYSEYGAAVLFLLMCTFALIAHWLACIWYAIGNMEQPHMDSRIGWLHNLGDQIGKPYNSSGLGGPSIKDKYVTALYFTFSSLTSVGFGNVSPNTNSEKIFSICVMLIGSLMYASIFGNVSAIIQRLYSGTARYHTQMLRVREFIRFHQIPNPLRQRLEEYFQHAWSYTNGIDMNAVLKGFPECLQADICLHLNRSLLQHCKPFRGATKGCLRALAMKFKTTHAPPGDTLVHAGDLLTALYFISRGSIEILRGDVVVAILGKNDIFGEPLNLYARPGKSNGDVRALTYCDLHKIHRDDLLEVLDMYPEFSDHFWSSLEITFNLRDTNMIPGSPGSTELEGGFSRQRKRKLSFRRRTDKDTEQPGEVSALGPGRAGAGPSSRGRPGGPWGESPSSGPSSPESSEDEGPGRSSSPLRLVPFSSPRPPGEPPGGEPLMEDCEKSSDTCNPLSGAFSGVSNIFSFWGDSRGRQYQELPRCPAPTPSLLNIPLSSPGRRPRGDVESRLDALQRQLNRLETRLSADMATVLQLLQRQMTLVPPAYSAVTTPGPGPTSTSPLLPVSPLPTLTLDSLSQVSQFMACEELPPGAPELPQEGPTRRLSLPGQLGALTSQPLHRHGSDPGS

| SMILES | hERG current change (%, negative = inhibition) at 10uM [%] |
| --- | --- |
| Cc1c(C(=O)Nc2nnc(SCc3ccccc3Cl)s2)cccc1[N+](=O)[O-] | 10.8 |
| O=C(NNc1cc(C(F)(F)F)ccc1Cl)c1ccc(=O)[nH]c1 | 21.9 |
| CC(=O)Oc1cccc(C2C3=C(CC(C)(C)CC3=O)Nc3ccccc3N2C(C)=O)c1 (stereo not drawn) | 8.02 |
| COC(=O)c1cc(NC(=O)CC2C(=O)NCCN2C(=O)c2ccccc2)cc(C(=O)OC)c1 (stereo not drawn) | 17.7 |
| CC(=O)Nc1ccc(NC(=O)c2ccccc2F)cc1 | 2.37 |
| O=C1NC(=S)N/C1=C/c1cc2c(cc1[N+](=O)[O-])OCO2 | 20.1 |
| CC(=O)c1sc(NC(=O)COc2ccc([N+](=O)[O-])cc2)nc1C | 8.3 |
| C[C@@H]([C@H](O)c1ccccc1)N(C)C(=S)Nc1ccccc1 | 16.3 |
| Cc1ccc(CN2CCCN(Cc3ccc(Cl)cc3)S2(=O)=O)cc1 | 22.6 |
| OC1/C(=C/c2ccc(F)cc2)N2CCC1CC2 (stereo not drawn) | 21.6 |
| CC(OC(=O)CN1C(=O)c2ccccc2C1=O)C(=O)NCc1ccccc1 (stereo not drawn) | 10.7 |
| COc1ccc(/C=C/c2n[nH]c(=O)c(C#N)c2C)cc1 | 12.1 |
| O=C(NCCCn1ccnc1)C1CC(c2cccc(Br)c2)=NO1 (stereo not drawn) | -31.8 |
| Cc1ccccc1NC(=O)C1CCCN1S(=O)(=O)c1cccc2cccnc12 (stereo not drawn) | -12 |
| O=C(CSc1nnc(-c2ccc(F)cc2)o1)Nc1ccccc1N1CCOCC1 | -24.4 |
| CN(Cc1cccs1)C(=O)c1cc(S(=O)(=O)N2CCOCC2)ccc1N1CCCC1 | -27.1 |
| COc1ccc(OC)c(NS(=O)(=O)Cc2ccccc2)c1 | 4.62 |
| CCn1ccnc1CNCc1cn(-c2cc(C)ccc2C)nc1-c1ccccc1 | -69.3 |
| O=C(Nc1ccc(COc2ccccc2)cc1)Nc1cccc(C(=O)O)c1 | 23.4 |
| Cc1ccc(C)c(NC(=S)N2CCN(c3cccc(C(F)(F)F)c3)CC2)c1 | 7.13 |
| O=C(CN1C(=O)C2CC=C(Cl)CC2C1=O)NCc1ccccc1 (stereo not drawn) | -9.18 |
| COc1cc(/C=C2/NC(=O)NC2=O)cc(Br)c1OCc1ccccc1 | 6.18 |
| CCOC(=O)C1CCCN(c2nc(C)nc3c2oc2ccccc23)C1.Cl (stereo not drawn) | -35.8 |

| SMILES | hERG current change (%, negative = inhibition) at 10uM [%] |
| --- | --- |
| Cc1cc(NCCNC2=CC(=O)CCC2)nc2ccccc12 | -26.2 |
| O=C(CCCN=C1NS(=O)(=O)c2ccccc21)OCC(=O)N1CCc2ccccc21 | 12.7 |
| CCCCCC(=O)NC(=S)Nc1ccc(NC(=O)c2ccco2)cc1 | 2.58 |
| COc1cccc2[nH]c3c(N4CCC(C(N)=O)CC4)ncnc3c12 | 15.3 |
| Cc1csc2c(NC3CCN(Cc4ccccc4)CC3)ncnc12 | -31.8 |
| CCc1nnc(NC(=O)CCC(=O)NCc2ccc(C)cc2)s1 | 24.7 |
| COc1ccc(S(=O)(=O)Nc2c(C)cc(C)cc2C)c2cccnc12 | -4 |
| CCCC1=NN2C(=N)/C(=C\c3cc(C)n(Cc4ccccc4)c3C)C(=O)N=C2S1 | -3.6 |
| CC(C)(C)NC(=O)NC(=O)COC(=O)CNC(=O)c1cc(Cl)cc([N+](=O)[O-])c1 | 16.9 |
| COc1cccc(NC(=O)CCc2nnc3ccc(N4CCC(C)CC4)nn23)c1 | 3.74 |
| COc1cc(OC)c(OC)cc1/C=C1/Cc2ccccc2C1=O | 8.91 |
| CC(=O)NN(O)C1N(C)C(=O)N(Cc2ccccc2)C1(C)C (stereo not drawn) | 15 |
| S=c1[nH]nc(Cn2c(-c3ccccn3)nc3ccccc32)n1-c1ccc2c(c1)OCCO2 | 11 |
| CN(CC(=O)NCCc1ccccc1)S(=O)(=O)c1ccccc1 | 15.7 |
| CCOC(=O)COc1ccc2cc(C(=O)OCC)c(=O)oc2c1 | -12 |
| Cc1cccc(C)c1OCC(=O)Nc1ccc2c(c1)OCCO2 | -6.24 |
| CC(=O)Nc1cccc(NC(=O)CCn2cnc3cc(C)c(C)cc32)c1 | -1.57 |
| COc1ccc(C(=O)Nc2ccc3nc(N4CCOCC4)sc3c2)cc1OC | 7.05 |
| COC(=O)C1=C(c2ccc(F)cc2OCc2ccccc2)C[C@@H]2CC[C@H]1N2C(=O)NC1CCCCC1 | -2.99 |
| Nc1nc(-c2ccco2)nn1C(=O)c1cccnc1 | 13.2 |
| CC(C)(C)C(=O)NC(=S)Nc1ccccc1C(=O)NC1CCCCC1 | -18 |
| Cn1c(N)c(C(=O)COC(=O)CSc2ccccc2)c(=O)n(C)c1=O | -33.6 |
| CN(C)c1ccc(NS(=O)(=O)c2cc(Cl)ccc2Cl)cc1 | -4.96 |

| SMILES | hERG current change (%, negative = inhibition) at 10uM [%] |
| --- | --- |
| CC(=O)Nc1ccc(S(=O)(=O)NC(C(=O)O)C(C)O)cc1 (stereo not drawn) | 25.3 |
| CCOC(=O)C(=O)Nc1ccc2c(c1)OCO2 | 7.92 |
| O=C(/C=C/c1ccccc1)NC1CC2CCCC(C1)N2Cc1ccccc1 (stereo not drawn) | -69.7 |
| O=C(CCCCCn1c(=S)[nH]c2ccc(N3CCOCC3)cc2c1=O)NCc1cccc(Cl)c1 | 28.1 |
| CSc1nnc2ccc(-c3ccc(C)cc3)nn12 | -19.8 |
| O=C(CNC(=O)c1ccc(S(=O)(=O)N2CCCC2)cc1)N/N=C/c1ccco1 | -17.1 |
| Cc1cccc2c(=O)oc(-c3ccccc3Cl)nc12 | 14.2 |
| COc1ccc(C2CC(c3c(-c4ccccc4)c4cc(Cl)ccc4[nH]c3=O)=NN2C(=O)CCC(=O)O)cc1 (stereo not drawn) | 11 |
| C/C(=N\Nc1nc2ccccc2[nH]1)c1ccccn1 | -72.8 |
| O=c1c2ccccc2c(-c2ccccc2)nn1-c1ccccn1 | -2.1 |
| CC(=O)c1cc(CN2CCN(Cc3ccccc3)C(CCO)C2)cs1 (stereo not drawn) | 2.03 |
| COC(=O)NCC(c1cccnc1)N1CCN(c2ccccc2)CC1 (stereo not drawn) | -13.3 |
| COc1ccc(OCC#CCN2CCC(C)CC2)cc1.O=C(O)C(=O)O | -11.4 |
| Cn1c(O)c(C=Nc2ccccc2)c(=O)n(C)c1=O | 12.9 |
| Cc1ccccc1NC(=O)CCCCCN1C(=O)[C@@H]2Cc3ccccc3CN2C1=O | -10.4 |
| O=C(CCNC(=O)C1CCN(S(=O)(=O)c2ccc(F)cc2)CC1)NC1CC1 | 15.8 |
| CC(C)(C)NCC1(CO)SC(N)=NC1=O.O.O=S(=O)(O)O (stereo not drawn) | 6.34 |
| CNC(=O)CSc1nnc(-c2ccccn2)n1Cc1ccco1 | -13.2 |
| COc1ccc(/C=N/N2CCN(c3ccc(Cl)cc3)CC2)cc1 | 13.4 |
| COC(=O)c1sc(S(=O)(=O)NC(C)C(=O)O)c(C(=O)OC)c1C (stereo not drawn) | 3.53 |
| Cc1ccc(-c2cc(C(=O)Nc3cccnc3)[nH]n2)c(O)c1C | 3.9 |
| CCCC(C)C(=O)Nc1nc(C)c(-c2csc(Nc3cc(OC)ccc3OC)n2)s1 (stereo not drawn) | 14.4 |
| COc1ccccc1NC(=O)COc1ccccc1C(=O)Nc1ccccc1 | 27.6 |

| SMILES | hERG current change (%, negative = inhibition) at 10uM [%] |
| --- | --- |
| O=C(NC(=S)N1CCN(Cc2ccccc2)CC1)c1ccccc1 | 6.47 |
| O=C(COc1ncnc2ccccc12)N1CCOCC1 | 11.2 |
| Cn1c(=O)c2c(SCC(=O)N3CCOCC3)nc(C3CCCCC3)nc2n(C)c1=O | -2.3 |
| COC(=O)CSc1nc(NC(C)C)nc(N2CCOCC2)n1 | -5.59 |
| Cc1cc(Cl)ccc1NNC(=O)c1snnc1C | 9.93 |
| Cc1ccc(NC(=O)CCc2c(C)nc3ncnn3c2C)cc1 | -9.42 |
| O=C(N/N=C/c1coc2ccccc2c1=O)c1cc(Br)c(O)c(Br)c1 | 20.6 |
| CC(C)(C#N)NC(=O)C1CCCN1S(=O)(=O)c1ccc2ccccc2c1 (stereo not drawn) | -33.6 |
| COC(=O)c1ccc(C)c(NC(=O)CCSc2ccc(C)cc2)c1 | -8.39 |
| O=C(Cc1cccs1)NCc1ccc(Cl)cc1 | -15.3 |
| CCCCOc1ccc(C(=O)N/C(=C/C=C/c2ccccc2)C(=O)NCCO)cc1 | -9.18 |
| Cc1ccccc1-n1ncc(C(C)NC(=O)c2ccco2)c1C (stereo not drawn) | 1.76 |
| Cc1ccc(OCc2cc(C(=O)N3CCCC(O)C3)no2)cn1 (stereo not drawn) | 17.7 |
| CC(=O)Cn1c(C(F)(F)F)nc2ccccc21 | 4.13 |
| CC(C)c1[nH]nc2c1C(C1C=CCCC1)C(C#N)=C(N)O2 (stereo not drawn) | 2.86 |
| N/C(=N\OC(=O)c1ccco1)c1cccnc1 | 16.8 |
| CCCCNC(=O)c1ccc2c(OCC)n(CCCC)nc2c1 | -9.85 |
| NC(=O)C[n+]1cccc(/C=N/O)c1.[Cl-] | 13.9 |
| COc1ccc(NC(=O)c2[nH]c(C)c(C(C)=O)c2C)cc1S(=O)(=O)Nc1ccc(Br)cc1 | 3.34 |
| CCOC(=O)c1cc2cc(OC)ccc2nc1C | -7.74 |
| Cc1cc(OC(C)C(=O)NCc2ccncc2)c2c3c(c(=O)oc2c1)CCCC3 (stereo not drawn) | -2.03 |

From PMC4336329 (PLoS ONE, 2015)
